Laboratory results taken from patent publication US12247058 (Bristol-Myers Squibb, dated 2025).

T1: human β-klotho, stably co-expressed with the Elk1-luciferase trans-reporter in HEK293 cells (HEK Luc Clone2) (human, UniProt Q86Z14 1-1044)
T1 sequence: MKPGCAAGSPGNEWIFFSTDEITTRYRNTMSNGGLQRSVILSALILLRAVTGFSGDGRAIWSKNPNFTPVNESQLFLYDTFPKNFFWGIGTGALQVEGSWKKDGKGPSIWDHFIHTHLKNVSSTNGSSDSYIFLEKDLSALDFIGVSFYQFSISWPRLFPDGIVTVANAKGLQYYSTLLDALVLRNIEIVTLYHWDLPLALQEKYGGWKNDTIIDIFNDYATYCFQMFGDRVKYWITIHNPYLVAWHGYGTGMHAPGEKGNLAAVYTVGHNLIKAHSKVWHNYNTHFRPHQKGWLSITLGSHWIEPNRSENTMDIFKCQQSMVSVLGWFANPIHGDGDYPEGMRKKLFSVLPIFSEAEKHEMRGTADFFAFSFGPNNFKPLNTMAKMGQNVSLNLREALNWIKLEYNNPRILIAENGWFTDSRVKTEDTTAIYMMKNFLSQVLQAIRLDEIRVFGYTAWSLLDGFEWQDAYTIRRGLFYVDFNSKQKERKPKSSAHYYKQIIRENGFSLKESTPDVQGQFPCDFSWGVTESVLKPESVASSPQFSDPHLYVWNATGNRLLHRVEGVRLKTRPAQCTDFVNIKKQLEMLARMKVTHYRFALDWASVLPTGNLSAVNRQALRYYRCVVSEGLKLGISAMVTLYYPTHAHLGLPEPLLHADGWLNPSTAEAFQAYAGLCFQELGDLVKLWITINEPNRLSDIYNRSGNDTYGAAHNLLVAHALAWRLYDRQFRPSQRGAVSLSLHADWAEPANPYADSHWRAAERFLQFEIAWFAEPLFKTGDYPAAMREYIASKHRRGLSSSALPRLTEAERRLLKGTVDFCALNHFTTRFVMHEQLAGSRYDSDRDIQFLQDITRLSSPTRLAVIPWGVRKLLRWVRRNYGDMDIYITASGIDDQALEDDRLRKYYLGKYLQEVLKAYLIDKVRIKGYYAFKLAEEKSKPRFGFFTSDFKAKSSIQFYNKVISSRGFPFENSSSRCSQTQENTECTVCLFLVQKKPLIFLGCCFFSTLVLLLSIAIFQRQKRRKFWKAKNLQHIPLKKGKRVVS


Biological target: T1, human β-klotho, stably co-expressed …
Test: cell-based or functional assay

Row | Binder | Geometric Mean EC50, Elk1-luciferase assay [nM]
1 | Compound 176 [Fc(hIgG1a_190)-L253-FGF21(Cmp. 2)] (Fc fusion) [omitted - human IgG1 Fc]SGGGGSGGGSGGGGGSHPIPDSSPLLQFGGQVRQRYLYTDDAQQTEAHLEIREDGTVGGAADQSPESLLQLKALKPGVIQILGVKTSRFLCQRPDGALYGSLHFDPEACSFRELLLEDGYNVYQSEAHGLPLHLGSGRGPARFLPLPGLPPAPPEPPGILAPQPPDVGSSDPLSMVEPSQGRSPSYAS | 1.2
2 | Compound 170 [Fc(hIgG1a_191)-L7-FGF21(Cmp. 2)] (Fc fusion) [omitted - human IgG1 Fc]GGGGGSGGGSGGGGSHPIPDSSPLLQFGGQVRQRYLYTDDAQQTEAHLEIREDGTVGGAADQSPESLLQLKALKPGVIQILGVKTSRFLCQRPDGALYGSLHFDPEACSFRELLLEDGYNVYQSEAHGLPLHLGSGRGPARFLPLPGLPPAPPEPPGILAPQPPDVGSSDPLSMVEPSQGRSPSYAS | 3.8
3 | Compound 177 [Fc(hIgG1a_191)-L6-FGF21(Cmp. 2)] (Fc fusion) [omitted - human IgG1 Fc]GGGGSGGGGSGGGGSHPIPDSSPLLQFGGQVRQRYLYTDDAQQTEAHLEIREDGTVGGAADQSPESLLQLKALKPGVIQILGVKTSRFLCQRPDGALYGSLHFDPEACSFRELLLEDGYNVYQSEAHGLPLHLGSGRGPARFLPLPGLPPAPPEPPGILAPQPPDVGSSDPLSMVEPSQGRSPSYAS | 1.8
4 | Compound 171 [Fc(hIgG1a_191)-L250-FGF21(Cmp. 2)] (Fc fusion) [omitted - human IgG1 Fc]GGGGSGGGSGGGGGSGGGSGGGGSGGGSHPIPDSSPLLQFGGQVRQRYLYTDDAQQTEAHLEIREDGTVGGAADQSPESLLQLKALKPGVIQILGVKTSRFLCQRPDGALYGSLHFDPEACSFRELLLEDGYNVYQSEAHGLPLHLGSGRGPARFLPLPGLPPAPPEPPGILAPQPPDVGSSDPLSMVEPSQGRSPSYAS | 1.7
5 | Compound 172 [Fc(hIgG1a_191)-L12-FGF21(Cmp. 2)] (Fc fusion) [omitted - human IgG1 Fc]PSPEPPTPEPPSPEPPTPEPPSPEPPTPEPHPIPDSSPLLQFGGQVRQRYLYTDDAQQTEAHLEIREDGTVGGAADQSPESLLQLKALKPGVIQILGVKTSRFLCQRPDGALYGSLHFDPEACSFRELLLEDGYNVYQSEAHGLPLHLGSGRGPARFLPLPGLPPAPPEPPGILAPQPPDVGSSDPLSMVEPSQGRSPSYAS | 1.5
6 | Compound 174 [Fc(hIgG1a_191)-L5-FGF21(Cmp. 2)] (Fc fusion) [omitted - human IgG1 Fc]GSHHHHHHHHGSHPIPDSSPLLQFGGQVRQRYLYTDDAQQTEAHLEIREDGTVGGAADQSPESLLQLKALKPGVIQILGVKTSRFLCQRPDGALYGSLHFDPEACSFRELLLEDGYNVYQSEAHGLPLHLGSGRGPARFLPLPGLPPAPPEPPGILAPQPPDVGSSDPLSMVEPSQGRSPSYAS | 3.3
7 | Compound 179 [Fc(hIgG1a_191)-L7-FGF21-1aa(Cmp. 2 with the C-terminal amino acid deleted)] (Fc fusion) [omitted - human IgG1 Fc]GGGGGSGGGSGGGGSHPIPDSSPLLQFGGQVRQRYLYTDDAQQTEAHLEIREDGTVGGAADQSPESLLQLKALKPGVIQILGVKTSRFLCQRPDGALYGSLHFDPEACSFRELLLEDGYNVYQSEAHGLPLHLGSGRGPARFLPLPGLPPAPPEPPGILAPQPPDVGSSDPLSMVEPSQGRSPSYA | 2.5
8 | Compound 175 [Fc(hIgG1a_191)-L252-FGF21(Cmp. 2)] (Fc fusion) [omitted - human IgG1 Fc]ELQLEESAAEAQEGELEHPIPDSSPLLQFGGQVRQRYLYTDDAQQTEAHLEIREDGTVGGAADQSPESLLQLKALKPGVIQILGVKTSRFLCQRPDGALYGSLHFDPEACSFRELLLEDGYNVYQSEAHGLPLHLGSGRGPARFLPLPGLPPAPPEPPGILAPQPPDVGSSDPLSMVEPSQGRSPSYAS | 14.6
9 | Compound 178 [Fc(hIgGla_189)-L6-FGF21(Cmp. 2)] (Fc fusion) [omitted - human IgG1 Fc]GGSGGGGSGGGGSHPIPDSSPLLQFGGQVRQRYLYTDDAQQTEAHLEIREDGTVGGAADQSPESLLQLKALKPGVIQILGVKTSRFLCQRPDGALYGSLHFDPEACSFRELLLEDGYNVYQSEAHGLPLHLGSGRGPARFLPLPGLPPAPPEPPGILAPQPPDVGSSDPLSMVEPSQGRSPSYAS | 1.3
10 | Compound 180 [Fc(hIgGla_191)-L7-FGF21-3aa(Cmp. 2 with the three C-terminal amino acids deleted)] (Fc fusion) [omitted - human IgG1 Fc]GGGGGSGGGSGGGGSHPIPDSSPLLQFGGQVRQRYLYTDDAQQTEAHLEIREDGTVGGAADQSPESLLQLKALKPGVIQILGVKTSRFLCQRPDGALYGSLHFDPEACSFRELLLEDGYNVYQSEAHGLPLHLGSGRGPARFLPLPGLPPAPPEPPGILAPQPPDVGSSDPLSMVEPSQGRSPS | 165
11 | Compound 173 [Fc(hIgG1a_191)-L251-FGF21(Cmp. 2)] (Fc fusion) [omitted - human IgG1 Fc]PSPEPPTPEPPSPEPHPIPDSSPLLQFGGQVRQRYLYTDDAQQTEAHLEIREDGTVGGAADQSPESLLQLKALKPGVIQILGVKTSRFLCQRPDGALYGSLHFDPEACSFRELLLEDGYNVYQSEAHGLPLHLGSGRGPARFLPLPGLPPAPPEPPGILAPQPPDVGSSDPLSMVEPSQGRSPSYAS | 1.5
